Measured values as given in PubChem BioAssay AID493208 (National Center for Advancing Translational Sciences (NCATS), 2011).
The whole screen tested about 44,000 compounds, of which about 340 (0.77%) were called active. About 5% were inconclusive and are not listed. Calls follow the shape of the dose curve; as a rule, active = well fitted inhibition curve with a large enough effect; inconclusive = small, poorly fitted or top-dose-only effect; inactive = flat fitted curve, though single readings scatter. This is one part of the list.

test: Acumen qHTS Assay for Inhibitors of the mTORC1 Signaling Pathway in MEF (Tsc2-/-, p53-/-) Cells: Sytravon; conditions: phospho-rpS6 immunofluorescence/PI, 24 h; series mostly up to 38.3 µM; activity change, negative = inhibition: at the top concentration;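 also: plate controls were DMSO for no effect and rapamycin for full effect; nearly all actives have a fitted effect of over 50% in size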
Summary of the method: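 Cell-based qHTS: Tsc2-/- p53-/- MEF, 24 h cpd, 37 °C; fix/perm, anti-phospho-S6 Alexa-488 + PI; Acumen 488 nm scan; pS6/PI ratio, % positive cells; rapamycin 7.5 nM = inhibition ref; PI count = viability.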

Structure (SMILES) | activity change, negative = inhibition
O=C(OCc1cc(=O)n2nc(-c3cccs3)sc2n1)c1ccc(F)cc1 | inactive: 13.6%
CCOc1ccc(C(=O)Nc2cccc(-c3nc4cccnc4s3)c2C)cc1OCC | inactive: -2.57%
COc1ccc(Nc2ncc3c(n2)CCN(Cc2ccc(Br)s2)C3)c(OC)c1 | inactive: 16%
Cc1ccc2nc3c(cc(C#N)c(=O)n3-c3nnc(SCc4ccccc4Cl)s3)c(=O)n2c1 | inactive: -1.07%
COc1ccc(/C=C/c2nc(C#N)c(N3CCC(C)CC3)o2)cc1OC | inactive: -18.9%
CC(=O)N1N=C(c2ccc(C)cc2)CC1c1cn(-c2ccccc2)nc1-c1cccs1 (configuration not stated) | inactive: 4.29%
CCn1cc(C(=O)NCc2ccccc2)c(=O)c2cc(S(=O)(=O)N3CCCCCC3)ccc21 | inactive: -16%
COc1ccc(NC(=O)c2ccc(COc3ccccc3OC)o2)cc1OC | inactive: 0.225%
COc1ccc(Br)cc1CNC(=O)C1CCCCN1S(=O)(=O)c1ccc(F)cc1 (configuration not stated) | inactive: -11.3%
Cc1ccc(OCc2nc3ccccc3n2Cc2ccccc2Cl)cc1 | inactive: -15.2%
COc1cccc(CNC(=O)CCC(=O)N2Cc3cccc(OC)c3Oc3ncccc32)c1OC | inactive: -3.95%
CCCNC(=O)CCc1c(C)nc2nc(-c3cc(OC)cc(OC)c3)nn2c1C | inactive: -11.9%
O=C(Cc1ccccc1)Nc1c(C(=O)Nc2ccccc2F)oc2ccccc12 | inactive: 0.223%
CCc1ccc(-c2[nH]c3c(c2-c2sc(C)c(C(=O)OC)c2O)c(=O)n(C)c(=O)n3C)cc1 | inactive: -5.16%
COc1cccc2sc(N(Cc3cccnc3)C(=O)C3COc4ccccc4O3)nc12 (configuration not stated) | inactive: -0.606%
COc1ccc(N(C)C(=O)CCS(=O)(=O)c2cccc3nsnc23)cc1 | inactive: 0.436%
Cc1c(NC(=O)c2ccccc2F)cccc1-c1nc2cccnc2s1 | inactive: 3.81%
Cc1ccc(Nc2nc3ccccc3c3nncn23)cc1C | inactive: -14.8%
O=C(Cn1ncc2c(=O)oc3ccccc3c21)NCc1ccc(Cl)cc1 | inactive: 4.06%
CC(=O)N1CCCc2cc(S(=O)(=O)N(C)CC(=O)Nc3ccc(Cl)cc3C)ccc21 | inactive: -7.13%
Cc1ccc(C)c(NC(=O)c2cc(S(=O)(=O)NCCC3=CCCCC3)ccc2F)c1 | inactive: -9.3%

Structure (SMILES) | activity change, negative = inhibition
COc1ccc(CNC(=O)C(C(C)C)N2Cc3ccccc3C2=O)cc1 (configuration not stated) | inactive: 1.74%
CCCN(CCC)C(=O)C1CCN(c2ncnc3c2nc2n3CCCCC2)CC1 | inactive: 0.875%
CCOc1ccc(CCNC(=O)CN(c2ccc(C)cc2)S(=O)(=O)N(C)C)cc1OCC | inactive: 1.91%
O=c1c(S(=O)(=O)c2ccccc2)cn(Cc2ccc(F)cc2)c2cc(N3CCCCC3)c(F)cc12 | inactive: -0.13%
CC1Cn2cc(C(=O)Nc3cccc(C(F)(F)F)c3)c(=O)c3c(Cl)ccc(c32)O1 (configuration not stated) | inactive: -0.111%
COC(=O)c1nnn(CC(=O)Nc2ccc(Br)c(C)c2)c1N | inactive: 0.0312%
Cc1ccc(-c2onc(C)c2C)cc1S(=O)(=O)NC1CCCCC1 | inactive: -6.68%
Cc1ccc(-n2c(=O)c3c(c4cc(C)ccc4n3C)n(CC(=O)Nc3cc(C)cc(C)c3)c2=O)cc1 | inactive: -1.05%
CCOC(=O)c1c(-c2ccc(OC)cc2)oc2ccc(OCc3ccc(C(=O)OC)cc3)cc12 | inactive: -2.46%
CCNc1c(NC(=O)c2cc(OCC)c(OCC)c(OCC)c2)c(=O)oc2ccccc12 | inactive: -0.859%
CCC(=O)N1CCc2cc(Br)cc(S(=O)(=O)NCCc3ccccc3)c21 | inactive: 6.77%
CCOC(=O)c1c(NC(=O)COc2ccc(F)cc2)sc2c1CCC(C)C2 (configuration not stated) | inactive: 4.73%
CC(C)(C)C(=O)Nc1cccc(C(=O)OCc2cc(=O)n3nc(C4CCCCC4)sc3n2)c1 | inactive: 0%
O=C(CSc1nc2ccccc2n1Cc1ccccc1Cl)NCc1ccccc1 | inactive: 4.74%
N#C/C(=C\c1ccc(-c2cc(Cl)ccc2Cl)o1)C(=O)Nc1ccccc1C(=O)O | inactive: 1.45%
CCCCN(C)CCNC(=O)c1nn(-c2ccc(OC)cc2)c(=O)c2c1c1ccccc1n2C | inactive: -1.08%
CCOC(=O)c1[nH]cnc1C(=O)Nc1ccc(F)cc1 | inactive: 1.71%
COc1cccc(CNC(=O)CCNS(=O)(=O)c2ccc3c(c2)oc(=O)n3C)c1 | inactive: 0.17%
Cc1cc(C)c(Cn2c(C(O)c3ccccc3)nc3ccccc32)c(C)c1 (configuration not stated) | inactive: -7.67%
CCN(Cc1ccccc1)C(=O)CN1C(=O)COc2ccc(S(=O)(=O)N3CCCCCC3)cc21 | inactive: -12.8%
CCn1cc2nc(SCc3ccccc3F)n(Cc3ccc(C)cc3)c(=O)c2n1 | inactive: -9.11%

Structure (SMILES) | activity change, negative = inhibition
Cc1ccc(NC(=O)CCS(=O)(=O)c2cccc3nsnc23)c(C)c1 | inactive: 0.171%
CCOc1ccc(NC(=O)CCS(=O)(=O)c2ccc3c(c2)n(C)c(=O)c(=O)n3C)cc1 | inactive: -0.309%
CCCS(=O)(=O)Nc1cc2c(cc1NCc1ccccc1)n(C)c(=O)n2C | inactive: -17.8%
Cc1ccc2cccc(NC(=O)C(C)(C)Oc3ccc(Br)cc3)c2n1 | inactive: 1.15%
CCOc1ccc(NC(=O)CSc2nc(-c3ccc(F)cc3)cc(C(F)(F)F)c2C#N)cc1 | inactive: 4.81%
CCOC(=O)c1ccccc1NC(=O)Cn1c2ncccc2c(=O)n1-c1ccccc1 | inactive: 2.02%
CCOC(=O)CSc1nc2ccc(NC(=O)c3ccccc3)cc2s1 | inactive: -0.233%
COc1cc(-c2nnc(SCCOc3ccc(C)c(Cl)c3)o2)cc(OC)c1OC | inactive: -0.518%
Cc1ccc(C)c(N2CCN(Cc3nnc(-c4ccccc4)o3)CC2)c1 | inactive: 3.81%
COc1cccc(C(=O)c2cn(CC(=O)Nc3cccc(C)c3C)c3nc(C)ccc3c2=O)c1 | inactive: -3.31%
CCOCCCn1c(SCC(=O)Nc2ccc(OC)cc2OC)nc2ccccc2c1=O | inactive: -1.26%
Cc1cccc(C)c1NC(=O)Cn1nc(C)c2sc3ccccc3c2c1=O | inactive: -18.1%
COc1ccc(-c2cn3c(n2)sc2cc(C(=O)Nc4cc(Cl)ccc4C)ccc23)cc1 | inactive: 0.38%
CCc1ccc(C(=O)Nc2ccc3nn(-c4ccc(C)c(Cl)c4)nc3c2)cc1 | inactive: -5.8%
Cc1ccc(CN2CCc3nc(SCC(=O)Nc4cccc(C)c4C)[nH]c(=O)c3C2)cc1 | inactive: 1.76%
COc1ccc(N2CC(NC(=O)c3ccc(S(=O)(=O)N4CCCCC4)cc3)CC2=O)cc1OC (configuration not stated) | inactive: -3.94%
Cc1cccc(NC(=O)c2cc(S(=O)(=O)N3CCC4(CC3)OCCO4)ccc2F)c1 | inactive: -1.21%
O=C(CCNS(=O)(=O)c1ccc2c(c1)CCN2C(=O)C1CC1)Nc1ccc(F)cc1F | inactive: -14.5%
CCOC(=O)c1ccc(NC(=O)Cn2cc(C(=O)c3ccc(Cl)cc3)c(=O)c3ccc(C)nc32)cc1 | inactive: 2.72%
COc1cc(OC)cc(-c2nc3nc(C)c(CCC(=O)Nc4cc(F)ccc4F)c(C)n3n2)c1 | inactive: -1.69%
